Reference: PubChem BioAssay AID1466 (National Center for Advancing Translational Sciences (NCATS), 2008)
Out of some 200,000 compounds screened, about 10 (0.005%) were called active. This list was built around the results that the source calls inconclusive (neither active nor inactive); the mix of calls is not that of the screen. Calls come from the whole dose curve; as a rule, active = well fitted inhibition curve with a large enough effect; inconclusive = small, poorly fitted or top-dose-only effect, or effect the other way, or another doubt; inactive = no such curve, though single readings can be large or run the other way. Potencies of inconclusive entries are left out as doubtful fits.
Potency is the fitted concentration of half-maximal effect; tags give direction and shape of the fitted curve.
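Throughout, for activity change, negative = inhibition: plate controls were uninhibited enzyme wells for no effect and no-enzyme background for full effect.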

The compounds below were run against Lysosomal alpha-glucosidase (Homo sapiens) (UniProt P10253) (assay: qHTS Assay for Inhibitors of Human alpha-Glucosidase as a Potential Chaperone Treatment of Pompe Disease). Conditions: purified human GAA, 4-MU-alpha-glucoside fluorescence; activity change, negative = inhibition: at 76.9 µM (top of the series) unless noted.
Method in brief: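 Compounds are titrated up to 77 uM against 4 nM human enzyme. Substrate 4-methylumbelliferyl-alpha-D-pyranoside (400 uM) reacts 20 min at room temperature in pH 5.0 buffer; liberated 4-methylumbelliferone is read at 440 nm.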
COc1cc(C(=O)NCCOc2ccccc2)c(Br)c(OC)c1OC was tested, and the Potency was inconclusive [inhibitor, single point].
In the case of CCCNS(=O)(=O)c1ccc(CCC(=O)N2CCCC2)cc1, the activity change, negative = inhibition is reported as inconclusive: 16.3% [activator].
With CCOCCCn1c(=NC(C)=O)c(C#N)cc2c(=O)n3cccc(C)c3nc21 the Potency was inconclusive [activator, partial curve].
COc1ccc(C2C(C(=O)c3ccco3)=C(O)C(=O)N2Cc2cccnc2)cc1OC (stereo not given) was tested, and the Potency was inconclusive [inhibitor, single point].
For O=C(NCC(=O)N(Cc1ccccc1)C(C(=O)NC1CCCCC1)c1ccco1)c1ccco1 (stereo not given), the “activity change, negative = inhibition” value was inactive: 0.775%.
With c1ccc(CCNc2ccnc3cc4ccccc4cc23)cc1 the Potency was inconclusive [activator, partial curve].
With CC(C)(C)NC(=O)C(c1ccc(F)cc1)N(Cc1cccs1)C(=O)c1ccc(CN2CCOCC2)o1 (stereo not given) the Potency was inconclusive [inhibitor, full curve, poor fit].
With C=CCNC(=S)NNC(=O)c1ccco1 the Potency was inconclusive [activator, full curve, poor fit].
O=C(Cn1c2ccccc2c2nc3n(c(=O)c21)CCS3)Nc1ccccc1C(F)(F)F was tested, and the Potency was inconclusive [activator, single point].
With CC(=O)Nc1ccc(NC(=O)c2ccco2)cc1 the Potency was inconclusive [inhibitor, single point].
In the case of CCN(CC)c1ccc(N2C(=O)c3ccccc3C2=O)cc1, the Potency is reported as inconclusive [activator, single point].
For CCN(CC(=O)NCc1ccc(Cl)cc1)Cc1cc(=O)n2ccsc2n1, the Potency was inconclusive [inhibitor, full curve, poor fit].
CCC(Sc1nc(C)cc(=O)[nH]1)C(=O)Nc1sc2c(c1C#N)CCCC2 (stereo not given) was tested, and the Potency was inconclusive [inhibitor, full curve].
With O=S1(=O)N=C(Nc2ccc(S(=O)(=O)N3CCCCC3)cc2)c2ccccc21 the Potency was inconclusive [inhibitor, single point].
In the case of Clc1ccc(-c2ccc(/C=N/Nc3cc(N4CCOCC4)nc(N4CCOCC4)n3)o2)cc1, the activity change, negative = inhibition is reported as inconclusive: 17.3% [activator].
For COc1cc(C(=O)Nc2sc3c(c2C(=O)NCc2ccco2)CCCC3)cc(OC)c1OC, the Potency was inconclusive [activator, partial curve].
With CCSc1nnc(NC(=O)CN(C)S(=O)(=O)c2ccc(F)cc2)s1 the activity change, negative = inhibition was inconclusive: -15.2% [inhibitor].
For O=C(CSc1nc2ccccc2[nH]1)N1CCN(S(=O)(=O)c2ccc(Cl)cc2)CC1, the Potency was inconclusive [inhibitor, partial curve].
COc1ccc(Cl)cc1S(=O)(=O)Oc1ccc(NC(C)=O)cc1 was tested, and the Potency was inconclusive [inhibitor, single point].
In the case of CC(NC(=O)c1ccc2c(c1)OCCO2)c1ccc(S(N)(=O)=O)cc1 (stereo not given), the Potency is reported as inconclusive [inhibitor, single point].
For Cc1cc(NC(=O)CN2CCN(S(=O)(=O)c3ccc(Cl)cc3)CC2)no1, the “activity change, negative = inhibition” value was inactive: -6.37%.
COc1ccc2c(c1)c(=O)c(C(=O)c1ccc(F)cc1)cn2CC(=O)Nc1ccc(F)cc1 was tested, and the Potency was inconclusive [inhibitor, partial curve].
In the case of Cc1ccc(CSc2nc3ccncc3[nH]2)cc1, the “activity change, negative = inhibition” value is reported as inactive: -9.01%.
With O=C(Nc1ccc(N2CCN(C(=O)c3cccs3)CC2)c(Cl)c1)c1ccco1 the Potency was inconclusive [inhibitor, single point].
With CCOC(=O)c1ccccc1NCN1C(=O)CSC1=O the Potency was inconclusive [inhibitor, single point].
CNS(=O)(=O)c1ccc2nc(NC(=O)c3ccc(N4C(=O)CCC4=O)cc3)sc2c1 was tested, and the activity change, negative = inhibition was inconclusive: -15.4% [inhibitor].
For C=CCOc1ccc(Cl)cc1C(=O)O, the Potency was inconclusive [inhibitor, single point].
Cc1cc(NC(=O)CSc2cn(CCNC(=O)c3ccc(F)cc3)c3ccccc23)no1 was tested, and the Potency was inconclusive [inhibitor, single point].
With COCCNC(=O)c1cc2cc(Cl)cc(Cl)c2oc1=O the activity change, negative = inhibition was inconclusive: 17.8% [activator].
For Cc1ccc(CSc2nc3c(c(N(C)C)n2)CCCC3)cc1, the Potency was inconclusive [inhibitor, full curve, poor fit].
COc1ccc(/C=C/c2nc3ccccc3n2Cc2ccc(OC)c(OC)c2)cc1 was tested, and the activity change, negative = inhibition was inconclusive: 18% [activator].
With Cc1ccc(-n2c(N)c(Br)c(=O)[nH]c2=O)cc1C the Potency was inconclusive [inhibitor, single point].
For Cc1nnc2sc(SCc3ccccc3Cl)nn2c1=O, the “activity change, negative = inhibition” value was inactive: -3.74%.
In the case of CNc1c(N)c(=O)oc2ccccc12, the “activity change, negative = inhibition” value is reported as inactive: 6.29%.
CC(C)OC(=O)c1c(N)n(CCCN2CCOCC2)c2nc3ccccc3nc12 was tested, and the Potency was inconclusive [activator, partial curve].
Clc1ccc(CSc2nnc(-c3ccc4c(c3)OCO4)o2)cc1 was tested, and the Potency was inconclusive [inhibitor, partial curve].
For CC(Sc1ccc(Cl)cc1)C(=O)Nc1ccc(S(=O)(=O)N2CCOCC2)cc1 (stereo not given), the Potency was inconclusive [inhibitor, single point].
In the case of CCn1c(CNC(=O)COc2ccc(C(C)C)cc2)nnc1SCC(=O)Nc1ccc(F)cc1, the Potency is reported as inconclusive [inhibitor, partial curve].
O=Cc1ccc(-c2nc3ccccc3s2)o1 was tested, and the activity change, negative = inhibition was inconclusive: 20.8% [activator].
For COCCNC(=O)c1c(N)n(CCC2=CCCCC2)c2nc3ccccc3nc12, the Potency was inconclusive [activator, single point].
With COC(=O)c1[nH]c2cccc(OC)c2c1NC(=O)CN1CCOCC1 the Potency was inconclusive [inhibitor, single point].
For C/C(=C1\SC(N2CCOCC2)=NC1=O)c1ccccc1, the Potency was inconclusive [inhibitor, single point].
In the case of CC(C)(CC(=O)O)CC(=O)NCc1c(Cl)cccc1Sc1ccc(Cl)cc1, the Potency is reported as inconclusive [inhibitor, full curve].
For CCCCNC(=S)NNC(=O)CCn1nc(C)c(Br)c1C, the Potency was inconclusive [inhibitor, single point].
With NS(=O)(=O)c1ccc(N2N=C(c3ccccc3)CC2c2ccc(F)cc2)cc1 (stereo not given) the Potency was inconclusive [activator, partial curve].
For S=C(NCCCn1ccnc1)NC1CCCCC1, the Potency was inconclusive [inhibitor, full curve, poor fit].
For CCCCN1C(=O)c2ccccc2C1C(=O)NC1CCCC1 (stereo not given), the Potency was inconclusive [inhibitor, partial curve, poor fit].
In the case of N#Cc1c(-c2cccc(Br)c2)cc(-c2ccco2)[nH]c1=O, the Potency is reported as inconclusive [activator, partial curve].
For CCn1c(COc2ccc(C)cc2)nnc1SCC(=O)NCc1ccco1, the “activity change, negative = inhibition” value was inactive: -5.43%.
CCC(=O)N1N=C(c2ccc(NS(=O)(=O)CC)cc2)CC1c1ccc(C)cc1 (stereo not given) was tested, and the Potency was inconclusive [activator, partial curve].
With Cc1ccc(-c2cc(C(=O)O)c3sc(N4CCCCC4)nc3n2)cc1 the Potency was inconclusive [activator, partial curve].
With CC12CCC(=O)N1c1c(sc3nc(N4CCOCC4)c4c(c13)CCCC4)C(=O)N2 (stereo not given) the Potency was inconclusive [activator, partial curve].
With CC1Cn2c(nnc2C23CC4CC(CC(C4)C2)C3)S1 (stereo not given) the Potency was inconclusive [inhibitor, single point].
O=C(c1ccco1)N1CCN(c2ncnc3c(-c4ccccc4)nsc23)CC1 was tested, and the Potency was inconclusive [inhibitor, partial curve, poor fit].
In the case of O=C1CN(C(=O)c2ccco2)C(c2ccccc2)c2cc(Cl)ccc2N1 (stereo not given), the Potency is reported as inconclusive [inhibitor, partial curve].
In the case of Cc1ccc2c(CC(=O)N3CCOCC3)coc2c1, the activity change, negative = inhibition is reported as inconclusive: 20.5% [activator].
In the case of O=C1CCN(S(=O)(=O)c2ccc(Cl)cc2)N1, the Potency is reported as inconclusive [inhibitor, partial curve, poor fit].
COc1cccc(NC(=O)c2oc3ccc(S(=O)(=O)N4CCOCC4)cc3c2C)c1 was tested, and the Potency was inconclusive [inhibitor, full curve].
O=[N+]([O-])c1ccc(C2=NN(CCO)C(=Nc3ccc(OC(F)(F)F)cc3)SC2)cc1 was tested, and the Potency was inconclusive [inhibitor, full curve, poor fit].
COc1ccc(CCN2C(=O)CC(Nc3ccc(N4CCOCC4)cc3)C2=O)cc1OC (stereo not given) was tested, and the “activity change, negative = inhibition” value was inactive: -1.44%.
In the case of N#Cc1ccc(/C=N/NC(=O)CCc2ccc(S(=O)(=O)N3CCOCC3)cc2)cc1, the Potency is reported as inconclusive [inhibitor, single point].
For O=C(CN1CCN(c2ncccn2)CC1)Nc1ccccc1C(F)(F)F, the activity change, negative = inhibition was inconclusive: 13.9% [activator].
In the case of CC(C)N(C(=O)COC(=O)c1cc(Cl)cc(Cl)c1N)C(C)C, the Potency is reported as inconclusive [activator, partial curve].
In the case of COc1cccc(CN2CCCC(C(=O)c3ccc4c(c3)OCO4)C2)c1O (stereo not given), the activity change, negative = inhibition is reported as inconclusive: 11.7% [activator].
With CCCCCCCC[n+]1cccc2c3ccccc3ccc21 the Potency was inconclusive [activator, partial curve].
